{"source": "PubChem BioAssay AID1345082", "about": "(National Center for Advancing Translational Sciences (NCATS), 2018)", "note": "In all, about 94,000 compounds went through this assay and about 4,000 (4.3%) were called active. This list was built around the results that the source calls inconclusive (neither active nor inactive); the mix of calls is not that of the screen. Calls come from the whole dose curve; as a rule, active = well fitted inhibition curve with a large enough effect; inconclusive = small, poorly fitted or top-dose-only effect; inactive = no such curve, though single readings can be large or run the other way. A potency beside an inconclusive call is a rough fit, not a confirmed value. Potency is the fitted concentration of half-maximal effect; tags give direction and shape of the fitted curve."}
{"experiment": "Cytotoxic Profiling in NIH 3T3 Cell Line of Diverse Libraries Using Quantitative High-Throughput Screening; note: nearly all actives have a fitted effect of over 55% in size", "conditions": "NIH 3T3 viability, CellTiter-Glo ATP luminescence, 48-72 h; series mostly up to 96.7 µM", "how_it_was_run": "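Mouse fibroblast NIH 3T3 cells, 400 per well, received compound via pintool and were incubated for 48 or 72 hr prior to CellTiter-Glo ATP luminescence measurement.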"}
{"smiles": "COCCN1Cc2ccccc2N(CC(O)Cc2ccccc2)CCC1=O", "note": "(stereo not drawn)", "Potency": "inactive"}
{"smiles": "COc1ccc(CN2CCOc3nc(-c4cccc(N(C)C)c4)ncc3C2=O)cc1", "Potency": "inconclusive: 79.4 µM [inhibitor, partial curve, poor fit]"}
{"smiles": "COC(=O)CNC(=O)C1CCCN1C(=O)c1cccc(-c2cccnc2)c1", "note": "(stereo not drawn)", "Potency": "inactive"}
{"smiles": "CCCS(=O)(=O)N1C[C@@H](Oc2ccccc2)C[C@H]1C(=O)NCCOC", "Potency": "inactive"}
{"smiles": "Cc1ccc(-c2cc(CN3CC(=O)N4CCC[C@H]4C3=O)on2)cc1", "Potency": "inactive"}
{"smiles": "Cc1cc(CNC(=O)c2cc(-c3ccccc3)cc3c2OCCN3C)no1", "Potency": "inconclusive: 79.4 µM [inhibitor, partial curve, poor fit]"}
{"smiles": "COc1cccc(-c2nnnn2[C@H]2CO[C@H]3[C@@H]2OC[C@@H]3NC(=O)c2ccc(N(C)C)cc2)c1", "Potency": "inconclusive: 10 µM [inhibitor, full curve]"}
{"smiles": "COc1ccc(C)cc1NC(=O)C1CN(S(=O)(=O)c2cccnc2)CC12CCCCC2", "note": "(stereo not drawn)", "Potency": "inconclusive: 44.7 µM [inhibitor, partial curve, poor fit]"}
{"smiles": "COc1ccc(CN2CC[C@H](c3nnc(-c4ccccc4)o3)C2)cc1", "Potency": "inconclusive: 112 µM [inhibitor, partial curve]"}
{"smiles": "O=C(NC1CCOCC1)c1ccc2c(c1)OCCN(c1ccccc1)C2", "Potency": "inconclusive: 28.2 µM [inhibitor, full curve]"}
{"smiles": "Cc1ccc(C)c(C(=O)Nc2cccc(-c3nnc4n3CCCC4)c2)c1", "Potency": "inactive"}
{"smiles": "CC(=O)N1CC(N2C(=O)c3c(c(C)nn3-c3ccccc3)C2C)C1", "note": "(stereo not drawn)", "Potency": "inconclusive: 100 µM [inhibitor, partial curve, poor fit]"}
{"smiles": "Cc1cc(Br)ccc1NC(=O)C[C@H]1NC(=O)c2ccccc2NC1=O", "Potency": "active: 20 µM"}
{"smiles": "CN1C(=O)CCCCC1C(=O)NCc1cccc(F)c1", "note": "(stereo not drawn)", "Potency": "inactive"}
{"smiles": "Cc1cc(=O)n(CC(=O)Nc2ccccc2C)c(N2CCN(c3ccccc3)CC2)n1", "Potency": "inactive"}
{"smiles": "O=C(c1ccccc1)N1CCN(C(=O)c2cccc(-c3ccccn3)c2)CC1", "Potency": "inactive"}
{"smiles": "Cc1ccc2nc(C3CCCN(Cc4cccc(-c5cccnc5)c4)C3)[nH]c(=O)c2c1", "note": "(stereo not drawn)", "Potency": "inconclusive: 50.1 µM [inhibitor, partial curve, poor fit]"}
{"smiles": "O=C(CCc1ccc(=O)[nH]n1)N[C@@H]1COCC[C@H]1Oc1ccccn1", "Potency": "inactive"}
{"smiles": "CC(C)(C)CN1CCOC[C@H]1c1ncc(-c2ccc(Cl)cc2)[nH]1", "Potency": "active: 89.1 µM"}
{"smiles": "CN1Cc2ncnc(NCCc3ccccc3F)c2CN(c2ccccc2)C1=O", "Potency": "inconclusive: 44.7 µM [inhibitor, partial curve, poor fit]"}
{"smiles": "O=C(C1CCCN(Cc2cccc(-c3ccsc3)c2)C1)N1CCN(Cc2ccccc2)CC1", "note": "(stereo not drawn)", "Potency": "active: 39.8 µM"}
{"smiles": "Cc1noc(-c2cn(C3CCN(C(=O)c4ccc(C)c(C)c4)CC3)nn2)n1", "Potency": "inactive"}
{"smiles": "O=C(CC(c1cccc(F)c1)c1cn(Cc2ccccc2)c2ccc([N+](=O)[O-])cc12)N1CCCC1", "note": "(stereo not drawn)", "Potency": "inconclusive: 17.8 µM [inhibitor, full curve]"}
{"smiles": "COc1cccc(CN2Cc3nc(-c4cccc(O)c4)ccc3OCC2=O)c1", "Potency": "inconclusive: 100 µM [inhibitor, single point]"}
{"smiles": "O=C(N[C@@H]1CN(C(=O)NC2CCCCC2)CCC[C@H]1O)c1ccc(OCc2ccccc2)cc1", "Potency": "inconclusive: 56.2 µM [inhibitor, partial curve, poor fit]"}
{"smiles": "COCc1ncc(C)n1CC1CCN(S(=O)(=O)c2c(C)noc2C)CC1", "Potency": "inactive"}
{"smiles": "O=C(CN1CCOc2c(O)cc(-c3csc4ccccc34)cc2C1)N1CCOCC1", "Potency": "inconclusive: 50.1 µM [inhibitor, partial curve, poor fit]"}
{"smiles": "O=C(CCC1CCCC1)N1CCC(Cc2nc(C3CCOCC3)no2)CC1", "Potency": "inconclusive: 25.1 µM [inhibitor, partial curve]"}
{"smiles": "CC(=O)NC[C@@H]1C=C(C)[C@H](Cc2nc3ccccc3n2C)C[C@H]1C(C)C", "Potency": "active: 79.4 µM"}
{"smiles": "COc1cccc(CN2C(=O)CCCCC2C(=O)N2CCc3ccccc3C2)c1", "note": "(stereo not drawn)", "Potency": "inactive"}
{"smiles": "Cc1nn(-c2ccc(F)cc2)c(Oc2ccccc2F)c1CCC(=O)N1CCCC1", "Potency": "active: 28.2 µM"}
{"smiles": "CN(CC#N)C(=O)c1cc(-c2cccc(C(F)(F)F)c2)nc2c1cnn2C", "Potency": "inconclusive: 39.8 µM [inhibitor, partial curve, poor fit]"}
{"smiles": "COc1ncccc1-c1cnc2[nH]cc(CC(=O)NC3CCOCC3)c2c1", "Potency": "inconclusive: 89.1 µM [inhibitor, partial curve, poor fit]"}
{"smiles": "O=C(NCc1ccccc1)c1cc(-c2ccc(Cl)cc2Cl)c2nncn2n1", "Potency": "inconclusive: 50.1 µM [inhibitor, partial curve, poor fit]"}
{"smiles": "CCNc1cc(N2CCC(CCC(=O)N3CCN(c4ncccn4)CC3)CC2)ncn1", "Potency": "inconclusive: 15.8 µM [inhibitor, partial curve, poor fit]"}
{"smiles": "Cn1ncc2c(C(=O)Nc3cccc(Cl)c3)cc(-c3ccccc3C(F)(F)F)nc21", "Potency": "inactive"}
{"smiles": "CCOc1ccc(C(=O)N2CCC3(CC2)NC(=O)N(c2ccc(F)cc2)N3)cc1", "Potency": "inconclusive: 31.6 µM [inhibitor, partial curve, poor fit]"}
{"smiles": "COc1ccccc1CC(=O)N1CCN(C(=O)c2nnn3c2COC(c2ccc(Cl)cc2)C3)CC1", "note": "(stereo not drawn)", "Potency": "inconclusive: 50.1 µM [inhibitor, partial curve, poor fit]"}
{"smiles": "C[C@H]1CN(S(=O)(=O)c2ccccc2)C[C@@H]1c1nc(-c2ccncc2)no1", "Potency": "inconclusive: 50.1 µM [inhibitor, single point]"}
{"smiles": "CC(C(=O)NCc1ccccc1F)C1CCOCC1", "note": "(stereo not drawn)", "Potency": "inactive"}
{"smiles": "CCN(CC)C(=O)[C@@H](C)C1CC[C@@]2(C)CC[C@H](NC(=O)COc3ccccc3)[C@@H](C)[C@@H]2[C@H]1O", "note": "(stereo partly drawn)", "Potency": "inconclusive: 39.8 µM [inhibitor, partial curve]"}
{"smiles": "CCc1[nH]c2ccc(CNC(=O)Cc3cnc4c(C)cccn34)cc2c1C", "Potency": "inconclusive: 28.2 µM [inhibitor, full curve]"}
{"smiles": "COc1ccc2c3c1CN(C(=O)Cc1cccs1)CC3=CC(C)(C)CO2", "Potency": "inconclusive: 50.1 µM [inhibitor, partial curve, poor fit]"}
